Holding throughout (test): Primary Screen for Target Class Profiling of Small Molecule Inhibitors of Methyltransferases
The target of test [1] is Glycine N-methyltransferase (Homo sapiens) (UniProt Q14749). To be noted: purified enzyme, MTase-Glo SAH luminescence; measured here: GNMT inhibition; at 40 µM; stronger effect = lower value. The procedure, abridged: (§1)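 Each enzyme was reacted with SAM and its substrate, with compounds tested once at 40 uM; SAH formed was read by MTase-Glo luminescence.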
The target in test [2] is Guanidinoacetate N-methyltransferase (Homo sapiens) (UniProt Q14353). The settings on record: purified enzyme, MTase-Glo SAH luminescence; measured here: GAMT inhibition; at 40 µM; stronger effect = lower value. In outline:
as §1

For test [3], the target named is Histamine N-methyltransferase (Homo sapiens) (UniProt P50135). To be noted: purified enzyme, MTase-Glo SAH luminescence; measured here: HNMT inhibition; at 40 µM; stronger effect = lower value. The procedure, abridged:
as §1

The target in test [4] is Nicotinamide N-methyltransferase (Homo sapiens) (UniProt P40261). To be noted: purified enzyme, MTase-Glo SAH luminescence; measured here: NNMT inhibition; at 40 µM; stronger effect = lower value. In outline:
as §1

For test [5], the target named is Phenylethanolamine N-methyltransferase (Homo sapiens) (UniProt P11086). To be noted: purified enzyme, MTase-Glo SAH luminescence; measured here: PNMT inhibition; at 40 µM; stronger effect = lower value. In outline:
as §1

Molecules are shown by their SMILES. Some of the results follow. The main result of the screen is listed elsewhere. These columns were measured beside it and carry no call.
% is scaled to controls: 0 for no effect and ±100 for the full control effect.

`CC(C)(C)c1nc(C(=O)NCc2cccnc2)n2ccccc12`: the activity change, negative = inhibition in test [1] was -10.7%; in test [2] it was -1.05%; in test [3], -4.58%; in test [4] it was -11.6%; in test [5], -5.42%.

In the case of `CN1C(=O)c2cc(C(=O)NCCc3cccs3)nn2CC1(C)C(=O)NC1CCCCC1` (stereo not given), the activity change, negative = inhibition in test [1] is -3.18%; in test [2], -0.906%; in test [3] it was -5.34%; in test [4], 1.21%; in test [5], -4.21%.

In the case of `COC(=O)c1cc(Br)cnc1N1CCC(NC2CCCCC2)C(O)C1` (stereo not given), the activity change, negative = inhibition was 1.57% in test [1]; 1.32% in test [2]; 10.3% in test [3]; -7.55% in test [4]; 2.83% in test [5].

`COc1ccc(N2C(=O)CSc3c(c4ccccc4n3C)C2C(=O)NCc2ccc(F)cc2)cc1OC` (stereo not given): the activity change, negative = inhibition in test [1] was -9.18%; in test [2], 0%; in test [3] it was -1.66%; in test [4], 1.87%; in test [5], 2.84%.

Regarding `CCC1(O)CCC12CCN(C(=O)c1ccco1)CC2` (stereo not given), the activity change, negative = inhibition was -1.59% in test [1]; -2.34% in test [2]; -1.97% in test [3]; -4.7% in test [4]; -6.84% in test [5].

Consider `COc1cccc(-c2nnc3n(CCc4ccccc4)c(=O)c4ccccc4n23)c1OC`, for which the activity change, negative = inhibition in test [1] was -2.45%; in test [2], 0%; in test [3] it was 1.25%; in test [4], 1.57%; in test [5], -2.16%.

As for `CC1(C)[C@H](C(=O)O)N2C(=O)C[C@H]2S1(=O)=O`, the activity change, negative = inhibition in test [1] is 5.97%; in test [2], 6.72%; in test [3], 8.79%; in test [4], -1.68%; in test [5], 7.49%.

`Cc1ccc(Cn2nc3n(CC(C)C)c(=O)c4ccccc4n3c2=O)cc1`: the activity change, negative = inhibition in test [1] is 3.53%; in test [2] it was 1.95%; in test [3], 9.73%; in test [4], -9.61%; in test [5] it was 5.78%.

Consider `COc1ccc(NC(=O)Cn2c(=O)oc3cc(S(=O)(=O)N4CC(C)CC(C)C4)ccc32)cc1` (stereo not given), for which the activity change, negative = inhibition was 16% in test [1]; 4.29% in test [2]; 13.9% in test [3]; 8.9% in test [4]; -4.82% in test [5].

For the compound `CC(=O)c1[nH]cc(CCC(=O)O)c1CC(=O)O`, the activity change, negative = inhibition is 3.41% in test [1]; 6.38% in test [2]; 4.56% in test [3]; -5.72% in test [4]; 2.27% in test [5].

Take `O=C(c1cnc(N2CCOCC2)nc1)N1CCn2nc(C(O)C3CC3)cc2C1` (stereo not given): the activity change, negative = inhibition in test [1] was -4.87%; in test [2], -7.09%; in test [3], -1.46%; in test [4], -9.44%; in test [5], -7.59%.

On to `COc1cccc(CN2CCCC(O)(CNC3CCCCCCC3)C2=O)c1` (stereo not given), for which the activity change, negative = inhibition in test [1] was -4.82%; in test [2], -3.78%; in test [3] it was -2.54%; in test [4], -3.82%; in test [5], 10%.

For `Cc1ccc(NC2=N[C@H]3[C@@H](O)[C@H](O)C[C@H](C(=O)NCc4cccnc4)[C@H]3S2)cc1`, the activity change, negative = inhibition in test [1] is -1.09%; in test [2] it was -0.327%; in test [3] it was -0.533%; in test [4], 0.278%; in test [5], 4.78%.

In the case of `CC1CCC(N2C(=O)c3ccc(-c4ccco4)n3CC2(C)C(=O)NC2CCCCCCC2)CC1` (stereo not given), the activity change, negative = inhibition in test [1] was -5.1%; in test [2], 0.86%; in test [3], 1.68%; in test [4], -8.76%; in test [5], -2.57%.

On to `CC(C)CCn1c(=O)c2ccccc2n2c(=O)n(CC(=O)Nc3ccc(F)cc3F)nc12`, for which the activity change, negative = inhibition came to 6.8% in test [1]; 0.13% in test [2]; 11.5% in test [3]; 2.5% in test [4]; 8.56% in test [5].

For `O=C(Nc1nc2cccc(-c3ccc(CN4CCS(=O)(=O)CC4)cc3)n2n1)C1CC1`, the activity change, negative = inhibition was -2.06% in test [1]; -0.383% in test [2]; 3.21% in test [3]; -10.6% in test [4]; -5.93% in test [5].

Regarding `Cc1ccc(NC(=O)N2CCN(c3nc(N)nc4sc(-c5cccnc5)nc34)CC2)cc1`, the activity change, negative = inhibition was -6.22% in test [1]; 14.9% in test [2]; -0.475% in test [3]; -5.2% in test [4]; 0.706% in test [5].

On to `CC1(C(=O)NC2CCCCC2)Cn2c(ccc2-c2ccccc2)C(=O)N1Cc1cccs1` (stereo not given), for which the activity change, negative = inhibition in test [1] was 8.15%; in test [2], 0%; in test [3] it was 7.12%; in test [4], -2.69%; in test [5], 4%.

`CCOc1ccc(CN2C(=O)c3cc4oc(C)cc4n3CC2(C)C(=O)NC2CCCCCCC2)cc1` (stereo not given): the activity change, negative = inhibition in test [1] is 3.35%; in test [2], -4.27%; in test [3], 8.92%; in test [4], 9.22%; in test [5], 1.63%.

In the case of `CCOC(=O)c1cc2n(n1)CC(C)(C(=O)NCCCOC)N(Cc1ccc3c(c1)OCO3)C2=O` (stereo not given), the activity change, negative = inhibition in test [1] is -0.366%; in test [2], 0%; in test [3], 5.22%; in test [4], 1.31%; in test [5] it was 0.714%.

For the origin of these results see PubChem BioAssay AID1745853 (National Center for Advancing Translational Sciences (NCATS), 2022).
